# Test results: the supplement of paper PMC8728848
# The list shows a part of the results.
# Legend:
# Assay in all cases: glycan array binding signal (z-score within array); higher = stronger binding
# Conditions in all cases: glycan notation: IUPAC condensed, linker removed
# [1] = target: Neu5Ac(a2-6)GlcNAc(b1-4)GlcNAc
# Method in brief: (§1)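 The binding signal is a Z-score computed within each array and averaged over linkers. Arrays of the same protein sequence at different concentrations or buffers were also averaged together. Data originate from 3228 arrays in the Consortium for Functional Glycomics database, kept only where the protein sequence was available.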
# [2] = target: Neu5Ac(a2-6)GlcNAc(b1-4)GlcNAc(b1-4)GlcNAc
# Method in brief: as §1
# Neu5Ac(a2-8)Neu5Ac = target: Neu5Ac(a2-8)Neu5Ac
# Method in brief: as §1
# [3] = target: Neu5Ac(a2-8)Neu5Ac(a2-3)Gal(b1-3)GalNAc(b1-4)[Neu5Ac(a2-3)]Gal(b1-4)Glc
# Method in brief: as §1
# [4] = target: Neu5Ac(a2-8)Neu5Ac(a2-3)Gal(b1-3)GalNAc(b1-4)[Neu5Ac(a2-8)Neu5Ac(a2-3)]Gal(b1-4)Glc
# Method in brief: as §1
# [5] = target: Neu5Ac(a2-8)Neu5Ac(a2-3)Gal(b1-4)Glc
# Method in brief: as §1
# [6] = target: Neu5Ac(a2-8)Neu5Ac(a2-3)Gal(b1-4)GlcNAc
# Method in brief: as §1
# [7] = target: Neu5Ac(a2-8)Neu5Ac(a2-3)[Gal(b1-3)GalNAc(b1-4)]Gal(b1-4)Glc
# Method in brief: as §1
# [8] = target: Neu5Ac(a2-8)Neu5Ac(a2-3)[GalNAc(b1-4)]Gal(b1-4)Glc
# Method in brief: as §1
# [9] = target: Neu5Ac(a2-8)Neu5Ac(a2-8)Neu5Ac
# Method in brief: as §1
# [10] = target: Neu5Ac(a2-8)Neu5Ac(a2-8)Neu5Ac(a2-3)Gal(b1-4)Glc
# Method in brief: as §1
# [11] = target: Neu5Ac(a2-8)Neu5Ac(a2-8)Neu5Ac(a2-3)[Gal(b1-3)GalNAc(b1-4)]Gal(b1-4)Glc
# Method in brief: as §1
# [12] = target: Neu5Ac(a2-8)Neu5Ac(a2-8)Neu5Ac(a2-3)[GalNAc(b1-4)]Gal(b1-4)Glc
# Method in brief: as §1
# [13] = target: Neu5Ac(a2-8)Neu5Ac(a2-8)Neu5Ac(a2-8)Neu5Ac(a2-3)[GalNAc(b1-4)]Gal(b1-4)Glc
# Method in brief: as §1
# [14] = target: Neu5Ac(a2-8)Neu5Gc(a2-3)Gal(b1-4)GlcNAc
# Method in brief: as §1
# [15] = target: Neu5Ac(b2-6)Gal(b1-4)GlcNAc
# Method in brief: as §1
# Neu5Ac(b2-6)GalNAc = target: Neu5Ac(b2-6)GalNAc
# Method in brief: as §1
# [16] = target: Neu5Ac9Ac(a2-3)Gal(b1-3)GlcNAc
# Method in brief: as §1
# [17] = target: Neu5Ac9Ac(a2-3)Gal(b1-4)GlcNAc
# Method in brief: as §1
# [18] = target: Neu5Ac9Ac(a2-6)Gal(b1-4)GlcNAc
# Method in brief: as §1
# [19] = target: Neu5Gc(a2-3)Gal(b1-3)GlcNAc
# Method in brief: as §1
# [20] = target: Neu5Gc(a2-3)Gal(b1-3)[Fuc(a1-4)]GlcNAc
# Method in brief: as §1
# Neu5Gc(a2-3)Gal(b1-4)Glc = target: Neu5Gc(a2-3)Gal(b1-4)Glc
# Method in brief: as §1
# [21] = target: Neu5Gc(a2-3)Gal(b1-4)GlcNAc
# Method in brief: as §1
# [22] = target: Neu5Gc(a2-3)Gal(b1-4)GlcNAc(b1-3)Gal(b1-4)GlcNAc(b1-2)Man(a1-3)[Neu5Gc(a2-3)Gal(b1-4)GlcNAc(b1-3)Gal(b1-4)GlcNAc(b1-2)Man(a1-6)]Man(b1-4)GlcNAc(b1-4)GlcNAc
# Method in brief: as §1
# [23] = target: Neu5Gc(a2-3)Gal(b1-4)[Fuc(a1-3)]GlcNAc
# Method in brief: as §1
# [24] = target: Neu5Gc(a2-6)Gal(b1-4)GlcNAc
# Method in brief: as §1
# Neu5Gc(a2-6)GalNAc = target: Neu5Gc(a2-6)GalNAc
# Method in brief: as §1
# [25] = target: Neu5Gc(a2-8)Neu5Ac(a2-3)Gal(b1-4)GlcNAc
# Method in brief: as §1
# [26] = target: Neu5Gc(a2-8)Neu5Gc(a2-3)Gal(b1-4)GlcNAc
# Method in brief: as §1
# [27] = target: Neu5Gc(a2-8)Neu5Gc(a2-3)Gal(b1-4)GlcNAc(b1-3)Gal(b1-4)GlcNAc
# Method in brief: as §1
# [28] = target: Neu5Gc(a2-8)Neu5Gc(a2-6)Gal(b1-4)GlcNAc
# Method in brief: as §1
# [29] = target: Neu5Gc(b2-6)Gal(b1-4)GlcNAc
# Method in brief: as §1
binder,measurement,setting,value
CTAEGIKKFEGDGYELFKDNFPAGEKFDNDDTNDQFYTVIF [MUB40 (Lactobacillus reuteri)],glycan array binding signal (z-score),[1],-0.386
same,glycan array binding signal (z-score),[2],-0.383
same,glycan array binding signal (z-score),Neu5Ac(a2-8)Neu5Ac,-0.462
same,glycan array binding signal (z-score),[3],-0.669
same,glycan array binding signal (z-score),[4],-0.286
same,glycan array binding signal (z-score),[5],-0.599
same,glycan array binding signal (z-score),[6],-0.482
same,glycan array binding signal (z-score),[7],-0.27
same,glycan array binding signal (z-score),[8],-0.53
same,glycan array binding signal (z-score),[9],-0.703
same,glycan array binding signal (z-score),[10],0.232
same,glycan array binding signal (z-score),[11],-0.348
same,glycan array binding signal (z-score),[12],-0.447
same,glycan array binding signal (z-score),[13],-0.4
same,glycan array binding signal (z-score),[14],1.95
same,glycan array binding signal (z-score),[15],-0.375
same,glycan array binding signal (z-score),Neu5Ac(b2-6)GalNAc,-0.049
same,glycan array binding signal (z-score),[16],-0.434
same,glycan array binding signal (z-score),[17],-0.522
same,glycan array binding signal (z-score),[18],-0.242
same,glycan array binding signal (z-score),[19],-0.221
same,glycan array binding signal (z-score),[20],-0.398
same,glycan array binding signal (z-score),Neu5Gc(a2-3)Gal(b1-4)Glc,-0.38
same,glycan array binding signal (z-score),[21],2.42
same,glycan array binding signal (z-score),[22],2.75
same,glycan array binding signal (z-score),[23],-0.072
same,glycan array binding signal (z-score),[24],-0.043
same,glycan array binding signal (z-score),Neu5Gc(a2-6)GalNAc,0.011
same,glycan array binding signal (z-score),[25],-0.006
same,glycan array binding signal (z-score),[26],-0.281
same,glycan array binding signal (z-score),[27],2.42
same,glycan array binding signal (z-score),[28],-0.021
same,glycan array binding signal (z-score),[29],-0.505
